Reference: PubChem BioAssay AID463173 (ICCB-Longwood Screening Facility, Harvard Medical School, 2010)
Hit rate of the full screen: of about 52,000 compounds, about 4,300 (8.3%) were called active. No stated cut-off is given here; in the data, active means survival mostly below about 52% (no sharp cut-off); inactive means mostly above about 56%. The list shows a part of the results.

These compounds were tested on DeltatarO mutant (assay: S. aureus survival, RN4220 and DeltatarO strains – OD600, teichoic acid synthesis inhibitors, primary screen (AID 463173)). Conditions: S. aureus RN4220 wild type/DeltatarO growth, OD600, 18 h, active compounds read low, screened at 18.75 µg/mL (by protocol).

Row | Compound | survival
1 | COc1ccc(-c2cc(OC(=O)c3ccccc3C)c3c(C)oc(C)c3c(=O)c2)cc1 | inactive: 60%
2 | O=C1c2cccnc2C(=O)N1c1ccc(-c2nc3cc(Cl)ccc3o2)cc1 | inactive: 85%
3 | COc1ccccc1-c1cc(C(=O)N2CCN(c3ccccc3)CC2)no1 | active: -15%
4 | Cc1cc(C)c2c(=O)cc(C(=O)Nc3ccc(C)c(Cl)c3)oc2c1 | inactive: 94%
5 | Cc1ccc2[nH]cc(NC(=O)NCc3ccco3)c(=O)c2c1 | inactive: 98%
6 | CCc1ccc(C2=CC(c3cccc(C)c3)n3c(nc4ccccc43)N2)cc1 (stereo unspecified) | inactive: 80%
7 | Cc1cc(C)cc(-n2nnnc2SCC(=O)Nc2cccc(NC(=O)c3ccco3)c2)c1 | inactive: 67%
8 | COc1ccc(CNC(=O)CSCc2nc(-c3ccccc3F)oc2C)cc1 | inactive: 67%
9 | Cc1cc(C)nc(NS(=O)(=O)c2ccc(NC(=S)NC(=O)/C=C/c3ccco3)cc2)n1 | inactive: 91%
10 | O=C(Nc1ccc(OCc2cc(=O)n3ccsc3n2)cc1)c1ccc(F)cc1 | inactive: 101%
11 | Cc1nnc(N2CCC(C(=O)NCCc3ccccc3)CC2)c2nn(-c3ccccc3)c(C)c12 | inactive: 74%
12 | O=C(Nc1ccc2c(c1)OCO2)c1cc(-c2cccc(Cl)c2)on1 | inactive: 64%
13 | CSc1ccc(/C=C(\C#N)C(=O)NC2CCCCC2)cc1 | inactive: 96%
14 | CCC(=O)N1c2ccccc2CC1C(=O)NCCc1ccc(SC)cc1 (stereo unspecified) | inactive: 90%
15 | COCCn1c(-c2ccccc2)c(C)n2c3c(=O)n(C)c(=O)n(C)c3nc12 | inactive: 93%
16 | Cn1nnnc1SCCCNCc1cc(Br)ccc1OCc1ccccc1 | inactive: 70%
17 | Cc1nc2sccn2c(=O)c1S(=O)(=O)Nc1ccc(N2CCN(C)CC2)cc1 | inactive: 106%
18 | O=C(O)C1CCCN1c1ncccn1 (stereo unspecified) | inactive: 81%
19 | Cc1oc(-c2ccccc2Cl)nc1CS(=O)CC(=O)N1CCN(c2cccc(C(F)(F)F)c2)CC1 (stereo unspecified) | inactive: 131%
20 | O=C(CSc1nnc(-c2ccccc2Br)n1-c1ccccc1)c1ccc(F)cc1 | active: 17%
21 | Cc1nc2ccn(Cc3cccnc3)c(=O)c2cc1C(=O)NCc1ccccc1 | inactive: 72%
22 | O=C(NC1CCCC1)c1ccc(CSc2nc3cccnc3n2Cc2cccc(F)c2)cc1 | inactive: 92%
23 | CC(C)(C)C1CCc2nc(NC(=O)c3cccc(Cl)c3)sc2C1 (stereo unspecified) | active: 3%

Row | Compound | survival
24 | COC(=O)c1ccc(OCC2c3cc(OC)c(OC)cc3CCN2C(=O)c2ccc(OC)cc2)cc1 (stereo unspecified) | inactive: 83%
25 | O=c1[nH]c(SCc2ccccc2)nc2c1CCCC2 | inactive: 57%
26 | COc1cc(OC)c(NC(=O)NCCn2nnc3cc(S(=O)(=O)N(C)C)ccc32)cc1Cl | inactive: 88%
27 | NC(=O)c1cccc(S(=O)(=O)N2CCOCC2)c1 | inactive: 88%
28 | COc1ccc(-c2nn3c(=O)cc(CN4CCN(C(=O)Nc5cc(C)ccc5C)CC4)nc3s2)cc1 | inactive: 99%
29 | CCOc1ccc(CCNC(=O)C(CC)n2nc(C)c3c(C)n(-c4ccccc4)nc3c2=O)cc1 (stereo unspecified) | inactive: 69%
30 | Cc1cccc(N2CCN(C(=O)c3sc4nc5n(c(=O)c4c3C)CCC5)CC2C)c1 (stereo unspecified) | inactive: 83%
31 | CCCCSCCCNC(=O)C1CCN(Cc2nc(-c3ccc(CC)cc3)oc2C)CC1 | active: 46%
32 | COc1ccc(-c2c(C#N)c(SCC(=O)Nc3ccc(C)c(C)c3)nc(C)c2C(=O)Nc2ccc(Cl)cc2)cc1 | inactive: 92%
33 | CCOC(=O)c1c(C)[nH]c(C)c1S(=O)(=O)N1CCC(C(=O)NCc2ccc(F)cc2)CC1 | active: 6%
34 | Cc1cc(-c2ccc(S(=O)(=O)Nc3cccc(C)c3C)s2)on1 | inactive: 130%
35 | CCOc1ccc(CN2C(=O)c3ccccc3Sc3ccc(C(=O)NCc4ccc5c(c4)OCO5)cc32)cc1 | inactive: 83%
36 | Cc1ccccc1NC(=O)Nc1csc2c1CCCC2 | active: 29%
37 | COc1ccc(C(=O)CSc2nc3cc(C(=O)NC4CCCC4)ccc3c(=O)n2CC2CCCO2)cc1 (stereo unspecified) | inactive: 95%
38 | CC(C)NC(=O)C(F)(F)F | inactive: 85%
39 | COc1ccc(C)cc1NC(=O)C(NS(=O)(=O)c1cccs1)c1ccccc1 (stereo unspecified) | active: 11%
40 | Cc1cccc(C(=O)N2CCNC(=O)C2CC(=O)Nc2ccc(F)cc2)c1 (stereo unspecified) | inactive: 75%
41 | COC(=O)c1cc2oc3ccccc3c2n1CC(=O)Nc1cccc(SC)c1 | inactive: 63%
42 | Oc1ccccc1C(C#Cc1ccccc1)N1CCOCC1 (stereo unspecified) | inactive: 83%
43 | Cc1cccc(NC(=O)Cn2c(=O)n(CCc3ccccc3)c(=O)c3ccccc32)c1 | inactive: 82%
44 | COc1ccc(NC(=O)C2=C(C)Nc3ncnn3C2c2sccc2C)cc1 (stereo unspecified) | inactive: 87%
45 | CC(=O)N1CCCC1c1nc2ccccc2n1Cc1c(F)cccc1Cl (stereo unspecified) | inactive: 74%
46 | COc1cc(OC)c(NC(=O)Cc2c(C(=O)O)c(C)cn2C)cc1Cl | inactive: 88%

Row | Compound | survival
47 | Cc1ccc2oc(=O)n(CCNC(=O)Nc3ccccc3C)c2c1 | inactive: 109%
48 | COc1ccc(OC2CCN(S(=O)(=O)c3cccc(F)c3)CC2)cc1 | inactive: 86%
49 | CC(C)(C)c1ccc(C(=O)NCCN2CCCC2)cc1 | inactive: 95%
50 | Cc1ccc(CNC(=O)Cc2c(C(=O)O)c(C)cn2C)cc1 | inactive: 89%
51 | CCCCn1c(=O)c2oc3ccccc3c2n(CC(=O)Nc2cc(C)ccc2C)c1=O | active: 44%
52 | O=C(CC1C(=O)OCCN1Cc1ccccc1)Nc1cccc(Cl)c1 (stereo unspecified) | inactive: 170%
53 | Cc1ccc(CCNC(=O)CN2C(=O)COc3ccc(S(=O)(=O)N4CCCC4)cc32)cc1 | inactive: 74%
54 | Cc1cc(C)cc(NC(=O)c2nnn(Cc3cccc(Br)c3)c2N)c1 | inactive: 72%
55 | CCOc1cc(Cn2c(-c3ccc(O)c(OCC)c3)nc3ccccc32)ccc1O | inactive: 73%
56 | CCCCC(=O)N1CC(=O)Nc2ccc(F)cc2C1c1ccc(F)cc1 (stereo unspecified) | inactive: 60%
57 | CCn1c(CNC(=O)C23CC4CC(CC(C4)C2)C3)nnc1SCC(=O)Nc1ccc(C)cc1 | inactive: 60%
58 | CN=C1S/C(=C\c2cn(CC(=O)NCc3ccco3)c3ccccc23)C(=O)N1C | inactive: 57%
59 | CC(=O)OC(C(=O)NC1CCCCC1)c1ccccc1 (stereo unspecified) | inactive: 94%
60 | CC(=O)c1ccc(NC(=O)c2sc(-n3nc(C)c(CCC(C)C)c3C)nc2C)cc1 | inactive: 65%
61 | Cc1ccc(S(=O)Cc2ccc(C(=O)NCc3ccc(OC(C)C)cc3)o2)cc1 (stereo unspecified) | inactive: 51%
62 | Cc1nc2c3cccnc3nn2c(C)c1CCC(=O)NCc1ccccc1Cl | inactive: 120%
63 | O=C1CC(SCc2nc3ccccc3[nH]2)C(=O)N1c1ccc(F)cc1 (stereo unspecified) | inactive: 83%
64 | Cc1ccc2c(Sc3ccccc3)c(C(=O)NCc3ccccc3F)[nH]c2c1 | inactive: 90%
65 | CCOc1ccccc1NC(=O)CSc1nc2ccccc2nc1Cc1ccc(C)cc1 | inactive: 78%
66 | CCCc1cnc2c(c1SCc1cccc(C)c1)c(=O)n(C)c(=O)n2C | inactive: 60%
67 | CCCOc1cccc(C(=O)Nc2cc(-c3nc4ccccc4[nH]3)ccc2C)c1 | active: 56%
68 | COC(=O)CSc1nc2c(cc1C#N)CCCC2 | inactive: 106%
69 | COc1cc(OC)c(NC(=O)c2sc3nc4n(c(=O)c3c2C)CCCC4)cc1Cl | inactive: 64%

Row | Compound | survival
70 | COc1ccc(S(=O)(=O)NCCc2sc(C)nc2C)cc1 | inactive: 70%
71 | Cc1ccc(Cn2ccn(Cc3ccc(C)cc3)c(=O)c2=O)cc1 | inactive: 97%
72 | CC1CCc2onc(C(=O)N3CCN(c4ccc(Cl)cc4)CC3)c2C1 (stereo unspecified) | inactive: 92%
73 | CCOc1ccc(CNC(=O)CCCn2nc(C)c3c(C)n(-c4ccc(C)cc4)nc3c2=O)cc1 | inactive: 74%
74 | COc1ccc(N2C(=O)NC(NS(=O)(=O)c3ccc(NC(C)=O)cc3)(C(F)(F)F)C2=O)cc1 (stereo unspecified) | inactive: 91%
75 | CCc1c(C)sc2c1CCN(C(=O)Nc1ccccc1Cl)C2c1ccc(OC)cc1 (stereo unspecified) | inactive: 101%
76 | Cc1cc(Cl)ccc1NC(=O)C1CCCN1S(=O)(=O)c1ccc2c(c1)CCCC(=O)N2 (stereo unspecified) | inactive: 102%
77 | Cc1ccc(-c2noc(-c3ccc(NC4CCCC4)c([N+](=O)[O-])c3)n2)cc1 | inactive: 98%
78 | CCc1ccc2c(c1)C1(NN=C(c3ccccc3)S1)C(=O)N2 (stereo unspecified) | active: 0%
79 | Cc1cc(-n2c(SCc3ccccc3F)nc3[nH]ncc3c2=O)ccc1Cl | inactive: 94%
80 | CC(C)(C)OC(=O)N1CCC(c2nnc(SCc3ccccc3Cl)o2)CC1 | active: -1%
81 | COc1ccc(Cl)cc1NC(=O)C(C)n1c(=O)cc(C(F)(F)F)c2c(C)nn(C)c21 (stereo unspecified) | inactive: 117%
82 | CS(=O)(=O)c1ncc(N(Cc2ccco2)Cc2cccs2)c(C(=O)Nc2ccccc2F)n1 | active: 41%
83 | COc1ccccc1CNC(=O)C1CCN(c2ncnc3c2nc2n3CCCCC2)CC1 | inactive: 94%
84 | CC(C)CCNC(=O)c1c[nH]c2ccc(S(=O)(=O)Nc3cccc(C(F)(F)F)c3)cc2c1=O | inactive: 74%
85 | CCc1ccc(-n2c3nc(=O)[nH]c(=O)c-3cc3c(C)nn(-c4ccccc4)c32)cc1 | inactive: 81%
86 | COc1ccc(C(CNC(=O)c2oc3ccccc3c2C)N2CCCCC2)cc1 (stereo unspecified) | inactive: 88%
87 | CCc1ccc(NC(=O)Cn2cnc3nc4c(cc3c2=O)CCCC4)cc1 | inactive: 128%
88 | CCOC(=O)c1cc2c(=O)n3ccccc3nc2n(CC(C)C)c1=NC(=O)C(C)(C)Oc1ccc(Cl)cc1 | active: 31%
89 | COc1ccc(CNC(=O)Cc2c(C)c3c(O)cc(C)cc3oc2=O)cc1 | inactive: 66%
90 | Cc1ccc(C)c(N2CCN(C(=O)CCc3c(C)nc4c(c3C)c(=O)n(C)c(=O)n4C)CC2)c1 | inactive: 97%
91 | CCN1CCN(C(=O)Cn2c(-c3cccs3)cc3cc(Cl)ccc32)CC1 | inactive: 90%
